Experimental data published in the supplement of paper PMC3334620.
Whole data set: some 33,000 sequences, median “E-score (-0.5 to 0.5)” near -0.021, cut for the highest 2% near 0.32. The list shows a part of the results.

Target: T1, Zap1 (UniProt P47043)
T1 sequence: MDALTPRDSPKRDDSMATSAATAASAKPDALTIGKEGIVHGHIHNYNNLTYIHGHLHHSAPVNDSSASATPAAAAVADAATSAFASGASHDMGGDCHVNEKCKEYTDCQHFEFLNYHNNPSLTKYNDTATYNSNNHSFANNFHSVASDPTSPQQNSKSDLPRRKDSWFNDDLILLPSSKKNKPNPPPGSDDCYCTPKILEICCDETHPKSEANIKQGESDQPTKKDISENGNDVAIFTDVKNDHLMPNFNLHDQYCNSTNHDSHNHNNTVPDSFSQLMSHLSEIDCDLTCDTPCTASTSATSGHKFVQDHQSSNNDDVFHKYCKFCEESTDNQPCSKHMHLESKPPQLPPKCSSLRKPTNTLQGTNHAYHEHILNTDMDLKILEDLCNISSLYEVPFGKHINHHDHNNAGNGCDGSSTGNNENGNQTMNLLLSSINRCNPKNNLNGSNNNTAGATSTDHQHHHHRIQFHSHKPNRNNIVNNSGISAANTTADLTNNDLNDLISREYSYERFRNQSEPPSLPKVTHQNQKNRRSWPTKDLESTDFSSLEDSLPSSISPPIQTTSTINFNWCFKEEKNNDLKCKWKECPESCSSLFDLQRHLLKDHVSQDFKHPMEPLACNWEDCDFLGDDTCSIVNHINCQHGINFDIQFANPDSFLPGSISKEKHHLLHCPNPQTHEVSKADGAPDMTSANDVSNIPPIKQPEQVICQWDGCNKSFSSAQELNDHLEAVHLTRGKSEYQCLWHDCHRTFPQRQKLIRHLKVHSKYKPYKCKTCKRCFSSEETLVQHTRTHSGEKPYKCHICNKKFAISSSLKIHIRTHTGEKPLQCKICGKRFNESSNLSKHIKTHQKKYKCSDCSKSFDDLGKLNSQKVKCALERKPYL
Experiment: PBM E-score (8-mer binding enrichment) (E-score (-0.5 to 0.5)); higher = stronger / more preferred TF binding; most listed sequences are background and not binding sites
Conditions: protein concentration: 200 nM; construct: GST-full length
Summary of the method: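 Using PURExpress in vitro transcription/translation, GST-tagged yeast transcription factors were made in full-length or DNA-binding-domain form. These were applied at about 100-200 nM to double-stranded universal all-10-mer Agilent arrays, and bound protein was detected with fluorescent anti-GST. Scans were normalised with masliner before the Universal PBM Analysis Suite assigned E-scores to ungapped eight-base words pooled with their reverse complements.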

Sequence | PBM E-score
ATAAGGGA | -0.0487
TCACGTAA | 0.0653
GTCGATTA | 0.105
CGGCCAAA | 0.0749
ATTGTTAA | 0.00657
CACCGCTA | 0.0167
CTGTTAAG | 0.0289
AACTGTGT | -0.0115
GCTTGACA | -0.141
AGCAAGCA | -0.167
GGTTACCA | 0.468
TCCATGAA | -0.0151
CGAGCAAC | -0.072
ACGGCCAT | 0.218
GCCCCCGC | -0.322
GACGCTGA | -0.0841
GTAGCGGA | -0.0235
CTGGTCGC | 0.0992
CGTCGGGA | -0.0974
ATTGGCAA | 0.134
ACGCGGAT | 0.0234
ATTTCCCG | 0.104
TAGAGGAA | -0.0988
AAAGCGCT | 0.0136
ATCACGCA | -0.0391

Sequence | PBM E-score
CCTGTTAA | 0.118
ATAGAACA | 0.147
AGAGTGTA | -0.0824
AAAGGTCT | 0.238
CCAATCAG | -0.187
AGCGGCAG | -0.229
CGTCACTA | -0.0123
ACTAAGGC | -0.123
CCGTGTTA | 0.034
ACCTTTAG | 0.348
ATGTACTA | 0.139
TAGCGCCA | -0.0799
ACTTCAGA | -0.0218
GACAACCA | 0.252
CGGTCAAC | 0.0787
CAACTGAG | -0.0811
GAAGCCGA | -0.146
TAGGGATA | 0.138
AGACGCCG | 0.0452
CGGCCCAC | -0.0285
GGCATCGA | -0.21
AATACACA | 0.0887
CCCTCCGC | 0.0365
ATGTGGAA | -0.0654
GGAATAAC | 0.288

Sequence | PBM E-score
CTGGTTAA | 0.225
CCTCTTAG | 0.203
TAGTTTGA | 0.17
CTCGTACA | -0.116
GCTGGGCC | -0.259
CGGGAATC | -0.119
TATTCACA | 0.195
CACTCGCG | -0.039
CTATCCCA | -0.0465
ACCTATGG | 0.129
GAGAAACC | 0.176
AGTAATTA | -0.00369
CCTCCTTA | -0.0275
AGACGAGG | -0.284
ACGTGTGA | -0.105
ATCGCGTA | -0.0361
TAAACGTA | -0.0228
AACTCTTC | -0.183
ACTGTTCG | 0.0928
ATAACGCC | 0.11
AACCGGTG | -0.0964
TAGGACCA | 0.122
CGTGCGAC | -0.188
CATCCAAA | -0.098
CACTTCGG | -0.103

Sequence | PBM E-score
GGTTCTCA | 0.278
ATTATATG | 0.184
AGTGGCAG | -0.0623
CCCCGTAG | 0.0246
CTCAATGA | 0.0234
TGCGAAAA | 0.233
CCTCACGA | 0.00143
AGCAAAGC | -0.222
TAACATTA | 0.0401
ATAATTCC | 0.0413
GTCCGGGA | 0.0602
ACCTACCC | 0.316
CCAATATC | 0.0316
ATCTCACA | 0.108
GAAAAGTC | -0.0851
AAGAGAGG | -0.107
TACATGGA | -0.148
AAATGTTG | -0.21
AGAATGCT | -0.0551
CCAGCCAC | 0.0551
ATGAAACG | -0.0893
GAGCCTAC | -0.0707
CCCCGTAA | 0.16
ATTATTGA | 0.0512
AGTAGTTC | 0.0602

Sequence | PBM E-score
AGGGTTGC | 0.46
CACAGGAC | -0.216
CAAGCGCC | -0.307
AAATCGAT | 0.0994
ACTTTAGG | -0.00467
ACCTAGAG | 0.141
GTCGGGCA | -0.136
GGCGCTAA | -0.199
GACTCCGC | -0.304
CCTCTCAG | -0.207
CTTTGCAA | 0.187
ACCCGTTG | 0.193
ACCGGAAC | 0.0106
AGACGTTG | -0.229
ATATGATA | 0.348
GGGAGGTA | -0.078
GCACGGCA | -0.138
AAATTCCA | 0.142
TCAGAGCA | -0.192
GACTTAAC | -0.0451
ACAACAAC | 0.226
ACTCAAAT | -0.0384
ACGCTGTG | 0.0173
AATTAATA | 0.332
ATAATATA | 0.183

Sequence | PBM E-score
ATCACGTG | -0.012
GAGTGCGC | -0.0805
CGCTCCAG | -0.129
AGACACCC | 0.172
AATCAAGC | -0.0841
CAACTTAC | 0.043
AGGTGTCG | -0.0687
CTGGCCCA | -0.095
CATCAGGA | 0.0932
AGCCGCTA | -0.243
TCGTGCAA | 0.127
CGCATGAC | -0.00046
GAGGGTGC | 0.138
AAGTTGAT | -0.14
CCGGCTTC | -0.213
ACTGATGC | -0.134
AGTGTCTG | -0.0406
CCTCTCTC | -0.171
CATAATCA | 0.14
ACCCGGTC | -0.0272
ACTTATTC | 0.02
AAGCTTCG | -0.0255
GCAGATCC | -0.296
CCACATTC | 0.074
AGGGGGCC | -0.103

Sequence | PBM E-score
CATTAGCA | -0.0213
TGACCTAA | 0.315
CTTTCCGC | -0.159
AGGTGACT | 0.0717
ATCCTGTG | -0.127
CCAGTCGG | -0.0944
GATAGACA | -0.068
AATAATTA | 0.169
ATGGGCGG | -0.125
AAGTATGG | 0.158
ATTAGTAC | 0.0269
CTAAGATC | 0.151
AGCGTTTC | -0.249
CCCAATAG | 0.118
GGTAGGTA | 0.205
GCGTCCGA | -0.0869
AGCCTTTG | -0.132
ACAGCCGA | -0.124
AACGGAAT | 0.114
CGCGCTAA | 0.217
GAATGTAA | 0.109
CGAGCACA | 0.0462
